From PubChem BioAssay AID1745853 (National Center for Advancing Translational Sciences (NCATS), 2022)
Some of the results follow. These are further read-outs of the screen, such as a control signal, another cell line or another target. No call is given for them.

Tests used:
Test in all cases: Primary Screen for Target Class Profiling of Small Molecule Inhibitors of Methyltransferases
[1] = biological target: Glycine N-methyltransferase (Homo sapiens) (UniProt Q14749); details: purified enzyme, MTase-Glo SAH luminescence; measured here: GNMT inhibition; at 40 µM; stronger effect = lower value
Outline: (§1)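 Each enzyme was assayed with SAM and its substrate. SAH formation detected by MTase-Glo luminescence; single-point 40 uM screen[…].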

[2] = biological target: Guanidinoacetate N-methyltransferase (Homo sapiens) (UniProt Q14353); details: purified enzyme, MTase-Glo SAH luminescence; measured here: GAMT inhibition; at 40 µM; stronger effect = lower value
Outline: as §1

[3] = biological target: Histamine N-methyltransferase (Homo sapiens) (UniProt P50135); details: purified enzyme, MTase-Glo SAH luminescence; measured here: HNMT inhibition; at 40 µM; stronger effect = lower value
Outline: as §1

[4] = biological target: Nicotinamide N-methyltransferase (Homo sapiens) (UniProt P40261); details: purified enzyme, MTase-Glo SAH luminescence; measured here: NNMT inhibition; at 40 µM; stronger effect = lower value
Outline: as §1

[5] = biological target: Phenylethanolamine N-methyltransferase (Homo sapiens) (UniProt P11086); details: purified enzyme, MTase-Glo SAH luminescence; measured here: PNMT inhibition; at 40 µM; stronger effect = lower value
Outline: as §1
% is set by controls: 0 for no effect and ±100 for the full control effect.

| Structure (SMILES) | activity change, negative = inhibition [1] [%] | activity change, negative = inhibition [2] [%] | activity change, negative = inhibition [3] [%] | activity change, negative = inhibition [4] [%] | activity change, negative = inhibition [5] [%] |
| --- | --- | --- | --- | --- | --- |
| C#C[C@]1(O)CC[C@H]2[C@@H]3CCC4=Cc5oncc5CC4(C)[C@H]3CCC21C (stereo partly specified) | -3.79 | 9.92 | 2.21 | -15.5 | 3.99 |
| Cc1cc(C(=O)N2CCC(CCOc3ccc(F)cc3)C2)c(C)n1Cc1ccc(F)cc1 (stereo unspecified) | -12.3 | -10.9 | -8.49 | -23.8 | -13.4 |
| N#Cc1c2nc3ccccc3nc2n2ccc(NC(=O)c3cccs3)cc12 |  | -3.88 |  | -14.3 | -37.3 |
| O=C(CCC1CCCN(S(=O)(=O)c2ccccc2F)C1)NCc1cccs1 (stereo unspecified) | -1.58 | 2.6 | -2.78 | -4.4 | -7.04 |
| COc1ccc2c(c1)c(NC(C)=O)c1n2CC(C)(C(=O)NC2CCCCC2)N(Cc2ccco2)C1=O (stereo unspecified) | -8.7 | 3.94 | 0.112 | -2.83 | -2.29 |
| C=CCNC(=O)N[C@H]1C[C@@H](C(=O)N[C@@H](Cc2ccc(OC)cc2)C(N)=O)N(C(=O)CC(C)(C)C)C1 | 0.676 | 0.04 | 0.402 | -3.37 | 2.51 |
| COc1ncc2cc(C(=O)Nc3cc(C(=O)NCc4cccc(Cl)c4)ccc3Cl)c(=O)[nH]c2n1 | 2.19 | 6.04 | 8.14 | -6.89 | 0.708 |
| OC1CCOC2(CCN(Cc3cccnc3)CC2)C1 (stereo unspecified) | -3.45 | -6.88 | -1.71 | -10.7 | 3.76 |
| COc1ccc(OC)c(CNC(=O)c2cc3n(n2)CC(C)(C(=O)NC2CCCCC2)N(C)C3=O)c1 (stereo unspecified) | -0.715 | -0.678 | 1.9 | 2.58 | -1.85 |
| CC(=O)NC(CO)C(=O)N1CCc2[nH]nc(-c3ccc(F)c(F)c3)c2C1 (stereo unspecified) | -1.26 | 1.59 | 0.826 | 1.02 | 2.89 |
| CCc1cc2c(cc3n2CC(C)(C(=O)NC2CCCCCC2)N(c2cccc(OC)c2)C3=O)s1 (stereo unspecified) | 3.04 | 1.24 | 5.14 | -2.19 | 0.483 |
| CSc1ccc(-c2cccc(C(=O)NCC(=O)N3CCCC3)c2)cc1 | -11.8 | -8.4 | -6.56 | -16.8 | -11.4 |
| O=C(Cn1nc2n(Cc3ccc(F)cc3)c(=O)c3ccccc3n2c1=O)c1ccc(F)cc1 | 7.16 | 2.48 | 11.4 | 5.67 | 7.52 |
| N=c1nc2n(cc1F)C1OC(CO)C(O)C1O2 (stereo unspecified) | 5.9 | 8 | 3.22 | -6.78 | 2.45 |
| CC1CCCC(NC(=O)C2(C)Cn3c(nc4ccccc43)C(=O)N2CC2CCCO2)C1C (stereo unspecified) | 5.7 | 0 | 4.18 | 5.71 | 0.921 |
| COc1ccc(N2C(=O)c3cc4sccc4n3CC2(C)C(=O)NC2CCCCC2)cc1OC (stereo unspecified) | -0.57 | 0 | 4.12 | 6.44 | 1.14 |
| Cc1noc(C)c1S(=O)(=O)N1CCC2(C1)N=C(c1ccccn1)C(=O)N2 (stereo unspecified) | -4.05 | -6 | -1.24 | -12.5 | -6.54 |
| Cc1cnc(C2CC2)n1C1CCN(S(=O)(=O)c2ccc3c(c2)OCCO3)CC1 | -4.41 | 0 | -8.51 | -31 | -0.663 |
| CO[C@H]1C=C2C(CC[C@H](O[C@@H]3O[C@H](CO)[C@@H](O)[C@@H](O)[C@H]3O)C2(C)C)[C@]2(C)CC[C@]3(C)C([C@H](C)C(O)C(C=C(C)C)O[C@@H]4O[C@H](CO)[C@@H](O)[C@@H](O)[C@H]4O)CC[C@@]3(C)C12 (stereo partly specified) | 0 | 8.77 | 5.52 | -6.19 | 5.65 |
| CCOc1cccc(C2c3cccn3-c3sc4c(c3CN2C(=O)Nc2ccc(OC)cc2OC)CCCC4)c1 (stereo unspecified) | -6.53 | -1.61 | -3.04 | -8.68 | -2.65 |

| Structure (SMILES) | activity change, negative = inhibition [1] [%] | activity change, negative = inhibition [2] [%] | activity change, negative = inhibition [3] [%] | activity change, negative = inhibition [4] [%] | activity change, negative = inhibition [5] [%] |
| --- | --- | --- | --- | --- | --- |
| On1ncc(C2CCNCC2)c1-c1cccc(-c2ccccc2)c1 | -7.09 | -3.63 | 6.3 | -16.1 | -0.106 |
| COc1ccc2cc3n(c2c1)CC(C)(C(=O)NC1CCCC1)N(Cc1ccccc1)C3=O (stereo unspecified) | 1.11 | -4.06 | 2.77 | -7.68 | -3 |
| CC(C)CNC(=O)N1CCCCC1c1nc(CCOc2ccc(F)cc2)no1 (stereo unspecified) | -1 | -2.63 | -1.93 | -6 | -9.31 |
| COc1ccccc1CN1C(=O)c2cc3oc(C)cc3n2CC1(C)C(=O)NC1CCCCCCC1 (stereo unspecified) | 1.7 | 0 | 9.92 | 6.86 | 0.016 |
| CC1CCCCN1CCCN1C(=O)c2ccc(-c3ccco3)n2CC1(C)C(=O)NC1CCCCCC1 (stereo unspecified) | -4.58 | 2.85 | -6.97 | -7.55 | -3.16 |
| COc1ccc(CC(=O)NC[C@@H]2CC[C@H]3C[C@@H]2C3(C)C)cc1 | -7.48 | -7.38 | -4.76 | -26.9 | -7.59 |
| Cc1ccc(Cn2nc3n(C(C)C)c(=O)c4ccc(C(=O)NCC(C)C)cc4n3c2=O)cc1 | 3.97 | 0 | 8.62 | 4.15 | 6.05 |
| CC(=O)N1CCC2(CCN(C(=O)c3ccc(Cl)cc3)CC2)Oc2ccccc21 | -3.3 | -2.94 | -12.5 | -9.78 | -5.41 |
| O=C(Cn1ccc2cc(S(=O)(=O)N3CCCC3)ccc21)NCCC1=CCCCC1 | -0.207 | 2.03 | 4.91 | -1.88 | -7.69 |
| CCn1nc(CC(C)C)cc1C(=O)N(C)C1CCCN(C2Cc3ccccc3C2)C1 (stereo unspecified) | -1.84 | -6.76 | 1.02 | -2.8 | -3.75 |
| O=C(CC1CC1)NC1CCCc2nc(-c3ccccc3)ncc21 (stereo unspecified) | 0.474 | -0.256 | 2.38 | -2.48 | 13 |
| CN(C)C[C@H]1O[C@@H](CO)[C@@H](O)[C@H]1N1CCN(c2ncccn2)CC1 | -1.1 | -2.22 | 1.02 | -2.6 | -2.23 |
| C=C1C(O)C(O)C2(CC3C(C)=CCC4C(C)(C(=O)O)CCCC34C)OC2C1O (stereo unspecified) | 0 | -7.04 | 7.86 | -19.2 | -8.15 |
| COc1ccccc1CNC(=O)C1(C)Cn2nc(-c3ccccc3)cc2C(=O)N1c1ccccc1C (stereo unspecified) | 7.34 | 3.08 | 10.5 | 9.45 | 2.45 |
| C=C(C)COc1ccc(C(=O)N2CCN3C(=O)CN(C)C(=O)C3C2)cc1 (stereo unspecified) | 1.07 | -0.196 | 2.24 | -2.8 | -0.502 |
| Cc1cc(C)c2[nH]c(CN3CCC(N)C3)cc(=O)c2c1 (stereo unspecified) | -5.77 | -4.64 | -3.1 | -13.6 | -5.74 |
| O=C(CCc1nnc2n(Cc3ccc(F)cc3)c(=O)c3ccccc3n12)N1CCc2ccccc2C1 | 6.36 | 0 | 4.35 | 11.5 | -0.306 |
| CC(C)CN1CC(COc2ccc3ccccc3c2)Oc2ccnc(-c3ccc(OCC(=O)O)cc3)c2C1=O (stereo unspecified) | -13.2 | -1.94 | -1.68 | -9.84 | 15.4 |
| CCCn1c(=O)c2ccc(C(=O)NCC(C)C)cc2n2c(=O)n(CC(=O)c3cccc(Cl)c3)nc12 | 6.69 | 1.44 | 7.75 | 2.73 | 7.12 |
| O=C(Cc1ccc(-n2cnnn2)cc1)N[C@@H]1COCC[C@@H]1OCc1ccccc1 | -4.86 | -1.94 | -0.193 | -7.2 | 2.65 |

| Structure (SMILES) | activity change, negative = inhibition [1] [%] | activity change, negative = inhibition [2] [%] | activity change, negative = inhibition [3] [%] | activity change, negative = inhibition [4] [%] | activity change, negative = inhibition [5] [%] |
| --- | --- | --- | --- | --- | --- |
| CCC1c2ccc(C)n2CCN1C(=O)Nc1ccc(Cl)cc1 (stereo unspecified) | -5.41 | -0.287 | -0.587 | -2.28 | -3.51 |
| CCCCC(=O)N(Cc1ccc(-c2ccccc2-c2nn[nH]n2)cc1)[C@H](C(=O)O)C(C)C |  | -1.77 |  | -13.2 | 0.794 |
| Cc1cc(C(=O)N[C@@H]2CCC[C@@H](C(=O)N(C)Cc3cccnc3)CC(=O)N(C)C2)no1 | -4.19 | -5.46 | -2.24 | -7.8 | -5.5 |
| Cc1ccc(C(=O)N(C)CC2CCOC2)cc1 (stereo unspecified) | -1.38 | 0.183 | 1.28 | 1.18 | 14.6 |
| CCc1nnc(NS(=O)(=O)c2ccc(NC(=S)NC(=O)/C=C/c3ccc(F)cc3)cc2)s1 | -43.5 | -15 | 6.54 | -37.9 | -4.03 |
| CN1CCN(C(=O)c2ccc(Nc3nccc(-c4cccs4)n3)cc2Cl)CC1 | -51.8 | 10.6 | -0.02 | -36.5 | 3.73 |
| CCOCCCNC(=O)N1Cc2c(sc3c2CCCC3)-n2cccc2C1c1cccc(OCC)c1 (stereo unspecified) | -3.39 | 0 | 0.754 | -12.1 | 3.87 |
| NCCCCCCCCCCN | -2.53 | 12.6 | 0.221 | -0.113 | 12.1 |
| Cc1ccc(N2C(=O)c3cc4sccc4n3CC2(C)C(=O)NC2CCCC(C)C2C)cc1 (stereo unspecified) | 0.533 | 0 | -0.668 | 2.7 | -1.03 |
| CC(=O)/C=C1\C(=O)N(C)c2ccccc21 | -17.8 | 2.1 | -0.544 | -7.71 | 1.97 |
| COc1cc(O)cc2c1C(=O)OC(C)CCCCCCC2 (stereo unspecified) | -4.16 | -4.99 | 1.43 | -21.5 | -3.01 |
| CCC(C)NC(=O)c1ccc2c(=O)n(C)c3nnc(SCc4cc(C)ccc4C)n3c2c1 (stereo unspecified) | 5.31 | 1.2 | 2.64 | 12.4 | 1.96 |
| CCCCN1C(=O)c2c(NC(C)=O)c3cc(OC)ccc3n2CC1(C)C(=O)NC1CCCCC1 (stereo unspecified) | 6.75 | 0 | 10.8 | 15.6 | 3.45 |
| O=C1[C@H]2CN(S(=O)(=O)c3ccc(F)cc3)CCN2C(=O)N1CCO | -5.77 | -8.88 | -7.56 | -4.33 | -3.17 |
| CC1(C(=O)NC2CCCCCC2)Cn2c(cc3sccc32)C(=O)N1Cc1cccc(Cl)c1 (stereo unspecified) | -5 | 3.3 | -3.85 | -4.46 | -3.47 |
| COc1ccc(Cn2c3c(c(=O)n2Cc2ccccc2)CCN(Cc2c(C)noc2C)C3)cc1 | -2 | 3.14 | 1.86 | -9.75 | -1.03 |
| Cc1cc(C(=O)Nc2cc(Oc3ccc4nc(NC(=O)C5CC5)cn4n3)ccc2C)n(C)n1 | -23.3 | -9.09 | -6.61 | -20.1 | -5.64 |
| Cc1ccc(CN2C(=O)c3ccccc3CC2(C)C(=O)NCc2ccccc2)cc1 (stereo unspecified) | -0.721 | 6.06 | -4.72 | -6.53 | -3.59 |
| O=C(c1ccncc1)N1CC(N(Cc2ccncc2)CC2CC2)C1 | -0.783 | -0.533 | -0.486 | -1.37 | 0.755 |
| CCc1ccc(N2C(=O)c3ccccc3CC2(C)C(=O)NCc2ccccc2C)cc1 (stereo unspecified) | -3.25 | 0 | 1.74 | -0.964 | 2.77 |
